Data as given in PubChem BioAssay AID485364 (National Center for Advancing Translational Sciences (NCATS), 2010).
The campaign covered roughly 360,000 compounds. About 11,000 (3.1%) were called active. Inconclusive results, whose numbers are uncertain, are shown with a selection of clear calls. The call rests on the fitted dose curve; in most records, active means well fitted inhibition curve with a large enough effect; inconclusive means small, poorly fitted or top-dose-only effect; inactive means no such curve, though single readings can be large or run the other way. No potency is given beside an inconclusive call; the fits are too rough.

Biological target: Schistosoma mansoni thioredoxin glutathione reductase (TGR) (UniProt Q962Y6)
Experiment: qHTS Assay for the Inhibitors of Schistosoma Mansoni Peroxiredoxins; further: nearly all actives have a fitted effect of over 60% in size
Details: purified TGR, DTNB reduction, TNB absorbance 405 nm; series mostly up to 114 µM
How it was run: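 Kinetic colorimetric format: TGR-catalysed, NADPH-driven DTNB reduction monitored via TNB absorbance. Enzyme dispensed at 20 nM; compound exposure 15 min at room temperature before reaction start.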
Potency means the concentration at half of the fitted maximal effect; tags describe the fitted curve by direction and shape.

| SMILES | Potency |
| --- | --- |
| C/C(=N\Nc1ccc(C(=O)O)cc1)c1ccc(-n2ccnc2)cc1 | inconclusive [inhibitor, partial curve] |
| Cc1ccccc1OCC(=O)OCC(=O)c1ccc(-c2ccccc2)cc1 | inconclusive [inhibitor, partial curve, poor fit] |
| Fc1cccc(Cl)c1/C=C/c1cnc2ccccc2n1 | inactive |
| C/C(CC(=O)N1CCCC1)=N\NC(=O)c1cc2ccccc2cc1O | inconclusive [inhibitor, partial curve] |
| CSCC[C@H](NC(=O)c1ccc2ccccc2c1)C(=O)N1CCC2(CC1)NCCc1[nH]cnc12 | inconclusive [inhibitor, partial curve] |
| Cc1ccc(/C=C/C(=O)OCC(=O)NC(C)c2ccccc2)o1 (stereo not given) | active: 35.5 µM |
| COc1cc(NC(=S)NCCc2ccccc2)c(OC)cc1NC(=O)C(C)C | inconclusive [inhibitor, partial curve] |
| CN(C)CCN(C(=O)CCS(=O)(=O)c1ccccc1)c1nc2c(F)cccc2s1 | inconclusive [inhibitor, partial curve] |
| Cc1ccc(NC(=O)CN2C(=O)CCc3cc(S(=O)(=O)N4CCOCC4)ccc32)cc1N(C)C | inactive |
| Cc1cc(C)nc(NC(=NCc2ccc3c(c2)OCO3)NC(=O)Nc2ccccc2)n1 | active: 1.41 µM |
| Cc1ccc(/C=N/NC(=O)c2ccc(NC(=O)c3ccccc3Cl)cc2)o1 | inconclusive [inhibitor, full curve, poor fit] |
| CCOC(=O)N1CCN(C(=O)c2ccc(CN(c3ccc(C)c(C)c3)S(C)(=O)=O)cc2)CC1 | inconclusive [inhibitor, partial curve] |
| O=C(NC(=S)NNC(=O)c1ccco1)c1ccccc1 | inconclusive [inhibitor, partial curve] |
| O=C(CCCc1ccccc1)NCc1ccccc1Cl | inactive |
| CCN(CC)CCC(c1cc(OC)c(OC)c(OC)c1)c1c(O)cc(OC)cc1OC (stereo not given) | inconclusive [inhibitor, partial curve, poor fit] |
| COc1cccc(CNCCc2ccc3c(c2)OCO3)c1OC | active: 39.8 µM |
| CCOC(=O)c1c(NC(=O)CCS(=O)(=O)c2ccccc2)sc2c1CC(C)(C)NC2(C)C | active: 39.8 µM |
| CC1=C(C(=O)Nc2ccc(Cl)cc2)C(c2ccccc2C)n2ncc(C(=O)Nc3ccc(C)cc3)c2N1 (stereo not given) | inactive |
| Cn1cnc(Sc2ncnc3nc[nH]c23)c1[N+](=O)[O-] | inconclusive [inhibitor, partial curve] |
| Cc1ccc(NC(=S)NC(=O)C2CC2)c(C)c1 | inconclusive [inhibitor, partial curve] |
| O=S(=O)(C/C(=C/CO)S(=O)(=O)c1ccccc1)c1ccccc1 | active: 4.47 µM |
| CC1(C)CC(=O)C(C(=O)c2ccccc2)C(=O)C1 | inconclusive [inhibitor, partial curve] |
| O=C(NC1CCN(Cc2ccccc2)CC1)c1cccc(S(=O)(=O)Nc2ccc(F)cc2)c1 | inactive |

| SMILES | Potency |
| --- | --- |
| COc1ccc(S(=O)(=O)N2CCCCCC2)cc1NC(=O)CN(C)Cc1ccc2c(c1)OCO2 | inactive |
| COCCOC(=O)/C(=C/c1ccc(OC(=O)c2ccccc2)cc1)C(C)=O | inconclusive [inhibitor, full curve] |
| CCC(C)Sc1ccc([C@@H]2[C@@H]3C(=O)N(C)C(=O)[C@@H]3[C@]3(C(=O)OC)CCCCN23)cc1 (stereo not given in full) | inconclusive [inhibitor, single point] |
| O=C(c1cccs1)c1no[n+]([O-])c1C(=O)c1cccs1 | active: 0.1 µM |
| Cc1occc1-c1nnc(SCC(=O)c2ccc(Cl)cc2)n1CC1CCCO1 (stereo not given) | active: 20 µM |
| NC(=O)C[C@@H]1N[C@]2(C(=O)Nc3ccccc32)[C@@H]2C(=O)N(c3cc(C(F)(F)F)ccc3Cl)C(=O)[C@H]12 | inconclusive [inhibitor, partial curve] |
| CC(NC(=O)CCc1nnc(C2CCCCC2)o1)c1ccc(F)cc1 (stereo not given) | inactive |
| CCSc1nnc(NC(=O)c2cccnc2Cl)s1 | inconclusive [inhibitor, partial curve] |
| CCn1c(-c2csc3ccccc23)n[nH]c1=S | inactive |
| O=C(c1cccc(Cl)c1)N1CCN(Cc2ccccc2)CC1 | inconclusive [inhibitor, full curve, poor fit] |
| O=C(CC1C(=O)NCCN1Cc1ccccc1C(F)(F)F)NC1CCCCCC1 (stereo not given) | active: 25.1 µM |
| Cn1nc(C(C)(C)C)cc1C(=O)NN1CCOCC1 | inconclusive [inhibitor, single point] |
| Nc1c(Cl)ncnc1NCC(O)CO (stereo not given) | inconclusive [inhibitor, single point] |
| Cc1cccn2c(=O)c3cc(C(=O)N4CCN(Cc5ccccc5)CC4)sc3nc12 | inconclusive [inhibitor, partial curve] |
| O=C1c2ccccc2NC(c2ccc(-c3ccc(F)cc3)o2)N1O (stereo not given) | inconclusive [inhibitor, partial curve] |
| COC(=O)c1ccc(Cn2cc(Cl)cn2)o1 | inconclusive [inhibitor, full curve, poor fit] |
| CCCS(=O)(=O)c1nc(S(=O)(=O)c2ccc(C)cc2)c(NCc2ccco2)s1 | active: 17.8 µM |
| CCCCC(=O)Nc1cc(C)c(O)c(-c2nc3ncccc3o2)c1 | inactive |
| CCCCc1ccc(NC(=O)CSc2nc(=O)n3cc(C)ccc3n2)cc1 | inactive |
| O=c1cc(CO)oc(C(Nc2cccc(C(F)(F)F)c2)c2ccccn2)c1O (stereo not given) | active: 11.2 µM |
| CCN1C(=O)CC(Sc2ccccc2C(=O)O)C1=O (stereo not given) | inconclusive [inhibitor, partial curve, poor fit] |
| COC(=O)c1cccc(NC(=O)CSc2ncn[nH]2)c1 | inconclusive [inhibitor, partial curve, poor fit] |
